The other results are listed elsewhere or left out.
Legend:
Experiment in all cases: glycan array binding signal (z-score within array); higher = stronger binding
Settings in all cases: glycan notation: IUPAC condensed, linker removed
Fuc(a1-2)Gal = biological target: Fuc(a1-2)Gal
Summary of the method: (§1)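 The binding signal is a Z-score computed within each array and averaged over linkers. Arrays of the same protein sequence at different concentrations or buffers were also averaged together. Data originate from 3228 arrays in the Consortium for Functional Glycomics database, kept only where the protein sequence was available.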

Fuc(a1-2)Gal(b1-3)GalNAc = biological target: Fuc(a1-2)Gal(b1-3)GalNAc
Summary of the method: as §1

[1] = biological target: Fuc(a1-2)Gal(b1-3)GalNAc(a1-3)[Fuc(a1-2)]Gal(b1-4)Glc
Summary of the method: as §1

[2] = biological target: Fuc(a1-2)Gal(b1-3)GalNAc(a1-3)[Fuc(a1-2)]Gal(b1-4)GlcNAc
Summary of the method: as §1

[3] = biological target: Fuc(a1-2)Gal(b1-3)GalNAc(b1-3)Gal
Summary of the method: as §1

[4] = biological target: Fuc(a1-2)Gal(b1-3)GalNAc(b1-3)Gal(a1-4)Gal(b1-4)Glc
Summary of the method: as §1

[5] = biological target: Fuc(a1-2)Gal(b1-3)GalNAc(b1-4)[Neu5Ac(a2-3)]Gal(b1-4)Glc
Summary of the method: as §1

Fuc(a1-2)Gal(b1-3)GlcNAc = biological target: Fuc(a1-2)Gal(b1-3)GlcNAc
Summary of the method: as §1

[6] = biological target: Fuc(a1-2)Gal(b1-3)GlcNAc(b1-2)Man(a1-3)[Fuc(a1-2)Gal(b1-3)GlcNAc(b1-2)Man(a1-6)]Man(b1-4)GlcNAc(b1-4)GlcNAc
Summary of the method: as §1

[7] = biological target: Fuc(a1-2)Gal(b1-3)GlcNAc(b1-3)Gal(b1-4)Glc
Summary of the method: as §1

[8] = biological target: Fuc(a1-2)Gal(b1-3)GlcNAc(b1-3)[Fuc(a1-3)[Gal(b1-4)]GlcNAc(b1-6)]Gal(b1-4)Glc
Summary of the method: as §1

[9] = biological target: Fuc(a1-2)Gal(b1-3)[Fuc(a1-4)]GlcNAc
Summary of the method: as §1

[10] = biological target: Fuc(a1-2)Gal(b1-3)[Fuc(a1-4)]GlcNAc(b1-2)Man(a1-3)[Fuc(a1-2)Gal(b1-3)[Fuc(a1-4)]GlcNAc(b1-2)Man(a1-6)]Man(b1-4)GlcNAc(b1-4)GlcNAc
Summary of the method: as §1

[11] = biological target: Fuc(a1-2)Gal(b1-3)[Fuc(a1-4)]GlcNAc(b1-3)[Fuc(a1-3)[Gal(b1-4)]GlcNAc(b1-6)]Gal(b1-4)Glc
Summary of the method: as §1

[12] = biological target: Fuc(a1-2)Gal(b1-3)[Fuc(a1-4)]GlcNAc(b1-3)[Gal(b1-4)GlcNAc(b1-6)]Gal(b1-4)Glc
Summary of the method: as §1

Fuc(a1-2)Gal(b1-4)Glc = biological target: Fuc(a1-2)Gal(b1-4)Glc
Summary of the method: as §1

Fuc(a1-2)Gal(b1-4)Glc6S = biological target: Fuc(a1-2)Gal(b1-4)Glc6S
Summary of the method: as §1

Fuc(a1-2)Gal(b1-4)GlcNAc = biological target: Fuc(a1-2)Gal(b1-4)GlcNAc
Summary of the method: as §1

[13] = biological target: Fuc(a1-2)Gal(b1-4)GlcNAc(b1-2)Man(a1-3)[Fuc(a1-2)Gal(b1-4)GlcNAc(b1-2)Man(a1-6)]Man(b1-4)GlcNAc(b1-4)GlcNAc
Summary of the method: as §1

[14] = biological target: Fuc(a1-2)Gal(b1-4)GlcNAc(b1-3)Gal(b1-4)GlcNAc
Summary of the method: as §1

[15] = biological target: Fuc(a1-2)Gal(b1-4)GlcNAc(b1-3)Gal(b1-4)GlcNAc(b1-3)Gal(b1-4)GlcNAc
Summary of the method: as §1

[16] = biological target: Fuc(a1-2)Gal(b1-4)GlcNAc(b1-3)GalNAc
Summary of the method: as §1

[17] = biological target: Fuc(a1-2)Gal(b1-4)GlcNAc6S
Summary of the method: as §1

[18] = biological target: Fuc(a1-2)Gal(b1-4)[Fuc(a1-3)]GlcNAc
Summary of the method: as §1

[19] = biological target: Fuc(a1-2)Gal(b1-4)[Fuc(a1-3)]GlcNAc(b1-2)Man(a1-3)[Fuc(a1-2)Gal(b1-4)[Fuc(a1-3)]GlcNAc(b1-2)Man(a1-6)]Man(b1-4)GlcNAc(b1-4)GlcNAc
Summary of the method: as §1

[20] = biological target: Fuc(a1-2)Gal(b1-4)[Fuc(a1-3)]GlcNAc(b1-3)Gal(b1-4)[Fuc(a1-3)]GlcNAc
Summary of the method: as §1

[21] = biological target: Fuc(a1-2)Gal(b1-4)[Fuc(a1-3)]GlcNAc(b1-3)Gal(b1-4)[Fuc(a1-3)]GlcNAc(b1-3)Gal(b1-4)[Fuc(a1-3)]GlcNAc
Summary of the method: as §1

Fuc(a1-2)Gal6S(b1-4)Glc = biological target: Fuc(a1-2)Gal6S(b1-4)Glc
Summary of the method: as §1

[22] = biological target: Fuc(a1-2)Gal6S(b1-4)Glc6S
Summary of the method: as §1

[23] = biological target: Fuc(a1-2)Gal6S(b1-4)GlcNAc
Summary of the method: as §1

Fuc(a1-2)[Gal(a1-3)]Gal = biological target: Fuc(a1-2)[Gal(a1-3)]Gal
Summary of the method: as §1

[24] = biological target: Fuc(a1-2)[Gal(a1-3)]Gal(b1-3)GlcNAc
Summary of the method: as §1

[25] = biological target: Fuc(a1-2)[Gal(a1-3)]Gal(b1-3)GlcNAc(b1-2)Man(a1-3)[Fuc(a1-2)[Gal(a1-3)]Gal(b1-3)GlcNAc(b1-2)Man(a1-6)]Man(b1-4)GlcNAc(b1-4)GlcNAc
Summary of the method: as §1

[26] = biological target: Fuc(a1-2)[Gal(a1-3)]Gal(b1-4)Glc
Summary of the method: as §1

[27] = biological target: Fuc(a1-2)[Gal(a1-3)]Gal(b1-4)GlcNAc
Summary of the method: as §1

[28] = biological target: Fuc(a1-2)[Gal(a1-3)]Gal(b1-4)GlcNAc(b1-2)Man(a1-3)[Fuc(a1-2)[Gal(a1-3)]Gal(b1-4)GlcNAc(b1-2)Man(a1-6)]Man(b1-4)GlcNAc(b1-4)GlcNAc
Summary of the method: as §1

[29] = biological target: Fuc(a1-2)[Gal(a1-3)]Gal(b1-4)[Fuc(a1-3)]GlcNAc
Summary of the method: as §1

[30] = biological target: Fuc(a1-2)[Gal(a1-4)]Gal(b1-4)GlcNAc
Summary of the method: as §1

[31] = biological target: Fuc(a1-2)[GalNAc(a1-3)]Gal
Summary of the method: as §1

[32] = biological target: Fuc(a1-2)[GalNAc(a1-3)]Gal(b1-3)GalNAc(a1-3)[Fuc(a1-2)]Gal(b1-4)GlcNAc
Summary of the method: as §1

[33] = biological target: Fuc(a1-2)[GalNAc(a1-3)]Gal(b1-3)GlcNAc
Summary of the method: as §1

[34] = biological target: Fuc(a1-2)[GalNAc(a1-3)]Gal(b1-3)GlcNAc(b1-2)Man(a1-3)[Fuc(a1-2)[GalNAc(a1-3)]Gal(b1-3)GlcNAc(b1-2)Man(a1-6)]Man(b1-4)GlcNAc(b1-4)GlcNAc
Summary of the method: as §1

[35] = biological target: Fuc(a1-2)[GalNAc(a1-3)]Gal(b1-4)Glc
Summary of the method: as §1

[36] = biological target: Fuc(a1-2)[GalNAc(a1-3)]Gal(b1-4)GlcNAc
Summary of the method: as §1

[37] = biological target: Fuc(a1-2)[GalNAc(a1-3)]Gal(b1-4)GlcNAc(b1-2)Man(a1-3)[Fuc(a1-2)[GalNAc(a1-3)]Gal(b1-4)GlcNAc(b1-2)Man(a1-6)]Man(b1-4)GlcNAc(b1-4)GlcNAc
Summary of the method: as §1

B1: SSL (Salmo salar) (protein)
chain: TGAKGAEEGVVPAETRNQCPTGWFQFGSRCFMFVETARSWPLAERHCVSLGANLASVHSSADDQFLQAIAGCKTGAFSTTWIGGFDAVQDRLWFWSDGSEFDYQNWAKGEPNNSGGREPCIVINWGDEYRWNDIKCGNSFPSVCSKRICEIQKN
glycan array binding signal (z-score) (Fuc(a1-2)Gal): -0.16 | glycan array binding signal (z-score) (Fuc(a1-2)Gal(b1-3)GalNAc): -0.155 | glycan array binding signal (z-score) [1]: -0.152 | glycan array binding signal (z-score) [2]: -0.17 | glycan array binding signal (z-score) [3]: -0.178 | glycan array binding signal (z-score) [4]: -0.176 | glycan array binding signal (z-score) [5]: -0.174 | glycan array binding signal (z-score) (Fuc(a1-2)Gal(b1-3)GlcNAc): -0.164 | glycan array binding signal (z-score) [6]: -0.127 | glycan array binding signal (z-score) [7]: -0.096 | glycan array binding signal (z-score) [8]: -0.183 | glycan array binding signal (z-score) [9]: -0.15 | glycan array binding signal (z-score) [10]: -0.048 | glycan array binding signal (z-score) [11]: -0.178 | glycan array binding signal (z-score) [12]: -0.177 | glycan array binding signal (z-score) (Fuc(a1-2)Gal(b1-4)Glc): -0.152 | glycan array binding signal (z-score) (Fuc(a1-2)Gal(b1-4)Glc6S): -0.137 | glycan array binding signal (z-score) (Fuc(a1-2)Gal(b1-4)GlcNAc): -0.168 | glycan array binding signal (z-score) [13]: -0.162 | glycan array binding signal (z-score) [14]: -0.179 | glycan array binding signal (z-score) [15]: -0.178 | glycan array binding signal (z-score) [16]: -0.142 | glycan array binding signal (z-score) [17]: -0.167 | glycan array binding signal (z-score) [18]: -0.154 | glycan array binding signal (z-score) [19]: -0.156 | glycan array binding signal (z-score) [20]: -0.172 | glycan array binding signal (z-score) [21]: -0.167 | glycan array binding signal (z-score) (Fuc(a1-2)Gal6S(b1-4)Glc): -0.117 | glycan array binding signal (z-score) [22]: -0.149 | glycan array binding signal (z-score) [23]: -0.148 | glycan array binding signal (z-score) (Fuc(a1-2)[Gal(a1-3)]Gal): -0.152 | glycan array binding signal (z-score) [24]: -0.16 | glycan array binding signal (z-score) [25]: -0.182 | glycan array binding signal (z-score) [26]: -0.135 | glycan array binding signal (z-score) [27]: -0.175 | glycan array binding signal (z-score) [28]: -0.182 | glycan array binding signal (z-score) [29]: -0.154 | glycan array binding signal (z-score) [30]: -0.129 | glycan array binding signal (z-score) [31]: -0.165 | glycan array binding signal (z-score) [32]: -0.164 | glycan array binding signal (z-score) [33]: -0.16 | glycan array binding signal (z-score) [34]: -0.184 | glycan array binding signal (z-score) [35]: -0.144 | glycan array binding signal (z-score) [36]: -0.171 | glycan array binding signal (z-score) [37]: -0.178

Reference: the supplement of paper PMC8728848
